# Data published in publication PMC11995724, “Antibiotic target discovery by integrated phenotypic and activity-based profiling of electrophilic fragments” (Cell chemical biology, 2025).
# In all, about 3,200 compounds went through this assay and about 110 (3.4%) showed an effect of 50% or more. Some of the results follow.
# Tested on: T1, V. cholerae SAD30
# T1 construct: SAD30
# Set-up: species or system S. aureus MSSA476 (TSB) or V. cholerae SAD30 (LB); 384-well bacterial growth screen at 25 uM, OD600 relative to DMSO control
# Conditions: relative growth, OD600, LB; 25 µM; inhibitor
row,SMILES,% of control remaining
1,"CC(C)NC(=O)C(C#N)=Cc1cnn(-c2ccc(Cl)cc2)c1 [8-I08, 3-[1-(4-chlorophenyl)-1H-pyrazol-4-yl]-2-cyano-N-(propan-2-yl)prop-2-enamide]",68.3209%
2,"C=CC(=O)Nc1conc1-c1ccccc1 [1-I09, N-(3-phenyl-1,2-oxazol-4-yl)prop-2-enamide]",86.0987%
3,"COc1ccc(-c2csc(NC(=O)CCl)n2)cc1 [4-N06, 2-chloro-N-[4-(4-methoxyphenyl)-1,3-thiazol-2-yl]acetamide]",106.793%
4,"C=CC(=O)Nc1ncnc2c1cnn2Cc1cccc(C)c1 [1-M21, N-{1-[(3-methylphenyl)methyl]-1H-pyrazolo[3,4-d]pyrimidin-4-yl}prop-2-enamide]",90.7324%
5,"C=CC(=O)NC12CC3CC(CC(C3)C1)C2 [1-E12, N-(adamantan-1-yl)prop-2-enamide]",82.2123%
6,"CCN1C(=O)CC[C@H](CNC(=O)C(C)Cl)[C@H]1c1cnn(C)c1 (mixture of isomers) [6-L13, rac-2-chloro-N-{[(2R,3S)-1-ethyl-2-(1-methyl-1H-pyrazol-4-yl)-6-oxopiperidin-3-yl]methyl}propanamide]",86.6054%
7,"C=CC(=O)Nc1ccc(-n2cnnn2)c(F)c1 [1-I17, N-[3-fluoro-4-(1H-1,2,3,4-tetrazol-1-yl)phenyl]prop-2-enamide]",88.9387%
8,"C=CC(=O)NCc1cnc(CC(C)C)s1 [1-J10, N-{[2-(2-methylpropyl)-1,3-thiazol-5-yl]methyl}prop-2-enamide]",104.514%
9,"C=CC(=O)N1CCCN(S(=O)(=O)c2ccc(OC)cc2)CC1 [3-G10, 1-[4-(4-methoxybenzenesulfonyl)-1,4-diazepan-1-yl]prop-2-en-1-one]",94.0305%
10,"CCc1ccc(OC(C)C(=O)N2CCN(C(=O)C(C)Cl)CC2)cc1 (stereo not drawn) [6-H16, 1-[4-(2-chloropropanoyl)piperazin-1-yl]-2-(4-ethylphenoxy)propan-1-one]",86.302%
11,"Cc1cc(C(=O)CCl)c(C)n1CCc1ccc(Cl)cc1 [10-N16, 2-chloro-1-{1-[2-(4-chlorophenyl)ethyl]-2,5-dimethyl-1H-pyrrol-3-yl}ethan-1-one]",92.7333%
12,"C=CC(=O)NCc1ccc(C(=O)N2CCOC3(CCCC3)C2)cc1 [3-B05, N-[(4-{6-oxa-9-azaspiro[4.5]decane-9-carbonyl}phenyl)methyl]prop-2-enamide]",107.616%
